Some of the results follow.
Tested on: PfHDP1 homeodomain (GST-tagged)
Test: gcPBM binding intensity (ln(normalized median fluorescence intensity)); higher = stronger DNA binding
Procedure, shortened: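 Binding intensity values are the highest Masliner-normalised natural-log median intensity among replicate spots of either probe orientation. The binding step lasted 1 h in 1× PBS with 1% milk, 0.2 mg/ml BSA, 0.5% salmon testes DNA and 0.03% Triton X-100, using GST-tagged P. falciparum DNA-binding domains expressed in E. coli on an Agilent 4 × 180k array of primer-extended double-stranded 36-bp intergenic genomic probes plus negative controls. Alexa488 anti-GST antibody and a 488 nm scan detected bound protein.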

Row | Sequence | gcPBM binding intensity (ln)
1 | AACATTTATAAATATTGTACATATAGATTTATATAT [XGTACX_site2662] | 6.41
2 | GGAATACAGGAAAAAAGTACAGAAAATGGAATATTA [XGTACX_site5053] | 6.39
3 | TTTAATTTGTTATACACACACAAAAAAAGTTATAAA [CACACA_site7779] | 6.55
4 | TCTTTCTTATATTTATATAATTATATTTATTTTATA [GTGCAC_negctrl_site300] | 6.67
5 | ATATAATGTTATAGAAGTACATGAAATACTTATTTA [XGTACX_site8850] | 6.17
6 | CATATATACACATACACACACACACGGACACGCACA [CACACA_site6910] | 7.64
7 | TATTGTATTTAATAAACACACAATATTAAAAATATA [CACACA_site4725] | 6.22
8 | ATACACATATATGTGTGTACTCACCTTTTAATATGA [XGTACX_site4349] | 6.54
9 | TGTTTAAAGGAAAAGGAGTAGTCTATTATATTATCT [CACACA_negctrl_site858] | 6.08
10 | GTATCTCATTATTCGTGTACTAAACACATAAAAATA [XGTACX_site2262] | 6.61
11 | ATCTATATCTATAATACACACTAAAGTAACAGAATA [CACACA_site7370] | 6.82
12 | GATTTACAACACGAACGTACAGAACAAAAAGGAAAA [XGTACX_site6501] | 6.77
13 | AATGTAAAAGTAAACACACACATATATATATACATA [CACACA_site2484] | 6.78
14 | TATAAAAATAAAAAAAGTACACATAAAAATATATAT [XGTACX_site5189] | 6.59
15 | TCATTCATATGTTACACACACACACGCACATAAAAA [CACACA_site7514] | 7.85
16 | TATATAATATAATTGACATGCAACCATTTTCGTGAA [TGCATGCA_site458] | 7.14
17 | AAGTTGGAAAGGTTATGTACTTATTTTTTAAAATAA [XGTACX_site204] | 6.06
18 | TATATATTCAAATGTGCATGTAAAAAAAAAAAAAAG [TGCATGCA_site126] | 8.4
19 | ATAAAAAACTCAGAGCGTACATAATTTTTTCTATTT [XGTACX_site2803] | 6.36
20 | TAACCATACATACATACACACACACCCACATATATA [CACACA_site8951] | 7.11
21 | GGCATATATATATGCACACATACATAAATACATGTG [CACACA_site5999] | 10.4
22 | AGACATTAATGAAGGTGTACATATATTTGACAGAAT [XGTACX_site655] | 6.82

Row | Sequence | gcPBM binding intensity (ln)
23 | TCCCTAGTATACCTTAGTACATATATTATTTTGCAC [XGTACX_site2174] | 7.43
24 | CAGGAGAGTAAAAGAGTGCGAATTATTATTTTGGAG | 6.7
25 | CATATAAAAAGACACACACACACATATATATATATA [CACACA_site940] | 9.2
26 | TATTTTTATTTAGGACGTACAAAAATAAATCATATT [XGTACX_site1448] | 6.56
27 | TTAAAAATATATATAACACACACATAATATATATAT [CACACA_site8811] | 8.12
28 | TTTTTTTTTCCCGTAAATATTGAGACAACCATAATG [CACACA_negctrl_site41] | 6.33
29 | TCCTTATATTTGCACACACACACAAGAAAATGAAAA [CACACA_site6613] | 11
30 | TTAGAAACATTGAAAGCATGCAATATTACTTTATAC [TGCATGCA_site522] | 6.54
31 | TATAAATATTACGGTAGTACTATACATATATATAAT [XGTACX_site7442] | 6.42
32 | AAGATATATATAGAAAGTACTTATATTTGTATAATT [XGTACX_site8855] | 6.49
33 | ATATTAATATATATGTTTTATTACCATTTTATGTAT [CACACA_negctrl_site1761] | 6.73
34 | AATAAATAAATATATACACACATATATATATAATAT [CACACA_site921] | 6.46
35 | TGAAAAAATATAAAATATAAAATAAAAAATATAAAA [GTGCAC_negctrl_site536] | 6.28
36 | TACAATCTAAAATACACACACACAAACATATATTTA [CACACA_site3702] | 6.88
37 | ATATATTTTCAAAAAAGTAAATCAAAATAAATATAT [TGCATGCA_negctrl_site319] | 6.44
38 | TCCAAATACAACTACACACAAACAAAAATTATATAT [CACACA_site881] | 6.71
39 | ATGGTTTAGTTATATACACACTCGAAAATAACGACA [CACACA_site7520] | 6.65
40 | TATAAAAATATATTTACACACTATATATATCGAAAG [CACACA_site1700] | 6.72
41 | TTAAAATTAATTCACCAGTATTAAAATAAAAACGAA [CACACA_negctrl_site1428] | 6.74
42 | AAATAAAATTTTATGTGTACGCAAAAAGTTGTAAGC [XGTACX_site8911] | 7.29
43 | AAAATTTTTCTTAAAGCATGCACAATTAAGAAGACG [TGCATGCA_site883] | 8.29
44 | TTTTTTTTAAGAGATAGTACATAAATATTATAATAT [XGTACX_site4685] | 6.48

Row | Sequence | gcPBM binding intensity (ln)
45 | AAAATAATTATGAATTGTACAGGTTTTTTTTTTTTT [XGTACX_site220] | 6.28
46 | AAAAAATTTTTAAGCACACACATAGATAATATATAT [CACACA_site1555] | 7.04
47 | GGAAAAAAAAAAAAAAAACACACGGTACATTCAAAC [CACACA_site2715] | 6.36
48 | TCTACAATTATAATTACACACTATAAAAAAGAAAGA [CACACA_site2984] | 6.76
49 | AAAAATAGGAACCAATATCCAACGTGACTTTATAAT [CACACA_negctrl_site1011] | 6.4
50 | ATTTTTTTTTTTTTTTTTTTTTTTTTTTGATTTGTG [CACACA_negctrl_site1391] | 5.82
51 | TTATTTTATTTTAAAAAAAACAATATAAATTCAAAG [GTGCAC_negctrl_site57] | 6.13
52 | ATGTCAAATTTTTGTGCACACATATATAGTTATTAT [CACACA_site2242] | 11.4
53 | ATAAAAATTGATTATACACACGCGCACCCACAACAA [CACACA_site3536] | 7.35
54 | TATTTATAAATTTACACACACACATGGGAACATAAA [CACACA_site5111] | 7.14
55 | TAAGGATAAATAAAATGAAATGAAATAAATAAATGA [XGTACX_negctrl_site539] | 6.47
56 | TATATATATCAGCAATGTACACAATGCATATTATAT [XGTACX_site4836] | 6.38
57 | AAAAAAAAAAATATCACACACACATAAATATAAACA [CACACA_site7138] | 6.78
58 | CATATATATATATATACACACATATATATTTTCTTT [CACACA_site1457] | 7.04
59 | AAAGTAGGCTTATATGCACACTTTGAAATATTATAA [CACACA_site5117] | 9.77
60 | CAATATTATATATATACACACATAATCTGTAAAAAC [CACACA_site1068] | 6.55
61 | ATTATACAAAATGGTAAGGAAAAGGAAATTTTTTTT [CACACA_negctrl_site1090] | 6
62 | TTTTTATTTAATATTTTAAAAAAAAATCATTTTTAA [XGTACX_negctrl_site207] | 5.94
63 | TATATAGTAATATATACACACACTTGTCTTGTAAAA [CACACA_site990] | 6.56
64 | ATATTTTTTTATAAATGTACAAAAATAATATTGCAT [XGTACX_site7399] | 6.22
65 | CCATTTACCCTTGCCATGCACACTTTTTTATAGAAA [CACACA_site3505] | 8.98
66 | AAAATAATGTTTATATGTACATATATATATATATAT [XGTACX_site8815] | 9.31

Row | Sequence | gcPBM binding intensity (ln)
67 | TTATAAAAATAATATCGTACAAATGATAAAGATTAA [XGTACX_site4893] | 6.5
68 | ACATATATATATATATATAATATTTTATATTTATTA [CACACA_negctrl_site713] | 6.66
69 | TGAATTCGTCAAAAGCGTACATATAATATCTTCTTG [XGTACX_site8842] | 6.46
70 | TATATATACATATACACACACACACCCATATATATA [CACACA_site2246] | 7.23
71 | ATAAATTTATATACTTGTACATATATATATTACATA [XGTACX_site6697] | 6.7
72 | ACTATCATTTTTTTAACACACAAAAAAAATAAAATA [CACACA_site3519] | 6.44
73 | TTTTAGCACTTATTATAAGATATCAAAAAGATGGGT [XGTACX_negctrl_site325] | 6.71
74 | TTTGAAATAAAAAGGTGTACACTCGATTAATAAATA [XGTACX_site6943] | 6.88
75 | TATCTTATTTTAAAAGTGCATGGAAAGGGGTTTTTG | 6.64
76 | TGTATAAGTGCCGTTATACACACGTTATATAAATAT [CACACA_site438] | 6.67
77 | AAGAATACACCACGCACACACACTTGAGAAAAAATA [CACACA_site3828] | 7.57
78 | AAGATTAATATTTTATGTACATATGTAATATATATG [XGTACX_site4367] | 6.55
79 | ATATTTTTATGATGTATCCAAGAAATGGAACTATAT [CACACA_negctrl_site1268] | 6.23
80 | ATTTTAGATATCCTGCGTACACAAATTGCTTTATTT [XGTACX_site7149] | 6.91
81 | ATATATACCTAAGACACACACATATAGATTTATATA [CACACA_site6498] | 6.57
82 | TTCTTTGTGGTATAGATACACACTATATTAATATGA [CACACA_site2150] | 7.06
83 | AAATAATATATGAATGCACACAGTAAAAATTAAAGA [CACACA_site2252] | 8.64
84 | AAAATTTCAATAAATACACACATATATATATATATT [CACACA_site1685] | 6.54
85 | TCATAAATTAATAATACATGCATAATATTAAAATGT [TGCATGCA_site5] | 6.47
86 | AAAAATATATAAGAGAGTACATAAAATAAATTAATT [XGTACX_site1534] | 6.37
87 | TTTAATAATATAATGTGTACTTAAAAATTTATATAT [XGTACX_site5821] | 6.32
88 | AAAAAATACAAGAAATGTACTCAAGCATATATTAAT [XGTACX_site3325] | 6.54

From the supplement of paper PMC11417369
